Data taken from the RNAGym collection of RNA variant scans (doi:10.7554/elife.90254).
The source gives no read counts; variants with many changes may rest on few reads.

B1: LINE1-mini (parent)
chain: GGCAGAGCUCAACACAGCGUGGCAAAGUGGCUGUGGCUAGACUGCC

Variants of: B1
Assay: self-cleavage, relative activity (ratio to wild type); higher = more cleavage; in vitro, sequencing; the parent is a self-cleaving ribozyme

Variant | self-cleavage
U9C C18A A25C C46U | 0.02
U9C C18G G30U G40A | 0.02
U9C G21A G33U A41G | 0.02
U9G A12U U34G G40C | 0
U9G A11C G36U | 0.03
U9C G17C G27A | 0.01
U9G G22A G30A U34G C46A | 0.05
U9G A41U U43A C46G | 0.11
U9G G21U C23G C37G A39C A41G | 0.01
U9G A24G U43A | 0.02
U9G A26U G30A | 0.09
U9G A16C A25G G27A | 0.1
C10A A16C A25G | 0.01
C10A A11U U28A | 0.01
U9G C23U A25C | 0.11
U9G G17U C37A | 0.17
U9C C10G A16U C31A A39U | 0.01
C10A A12C C37U A39C | 0
U9G A12C C13A G19A | 0.03
U9C A16C C18A G27C U28A C37A | 0.02
U9G G22A G40U | 0.03
U9G A24U G29U C31U | 0.01
U9G C23A C46U | 0.12
U9C A16U C23G G44U C46U | 0.02

Variant | self-cleavage
U9C A14G C18U G44A | 0.01
U9C C10G U20C A39C C42U | 0.01
U9C G21U G40U | 0.03
C10A A14U G21A C23G A25G G30C | 0.05
U9C C10U C42U | 0.05
U9G G35C U38C C42A C45G | 0.01
U9G C15A A25G G30U G33A | 0.06
U9G A25C C31U | 0.01
U9G G27C U38G A39U | 0.02
U9C C10A G27A G29A G40A | 0.07
U9C G35A C37A C46G | 0.04
U9G C13A A26C G44A | 0.09
U9C A14G G30C | 0.01
C10A A12U C15A | 0.01
C10A A24C G44A C46G | 0.02
U9G C15A G19A | 0.13
U9G A11U G27A | 0.02
U9G A16U A39G | 0.02
U9C A16U G29A G30C | 0.01
U9C G35C U38G | 0.03
C10A A14G C18U A26C G27U | 0.01
U9G C18U G19U C37U | 0.11
U9G C15A G40U | 0.28
U9G G27C C37A U38C U43A | 0.06

Variant | self-cleavage
C10A A14C C45G | 0.01
U9C C15A C18G U38C C45U | 0
U9C A14U G21U | 0.07
U9G A25G A41C C46A | 0
U9C A14U G27U C37U | 0.01
U9C C15A U34G | 0.01
C10A A16G C23U A26U U28A A39G | 0.01
U9G C10G U32C | 0.01
U9G C18A A25C A39C | 0.03
U9G G19C C37G | 0
C10A A14U G22U G35C | 0.01
U9G C13U G21U U28G U43G | 0.36
U9G A25G G40C | 0.04
U9G A14G U38C | 0.03
U9C G29U A39U | 0.04
U9C C15U C18G C42G | 0.01
C10A A14C U20A C23G C42G | 0
U9G A12C G27A C31U G33C G36U C42G | 0
U9C A26U C31U U32C G33C | 0.01
C10A A24U G30C | 0.05
C10A A24U G30U | 0.08
C10A A24C A39C | 0.05
U9C C15G C45G | 0.08
U9G A16G G27C | 0

Variant | self-cleavage
U9G A16U A24G C46A | 0.06
U9C C15A G19A | 0.02
C10A A24C U32A C46A | 0.01
U9G G29C U32G C37U | 0.07
U9G C13U C18G | 0.11
U9C C18G G21U G30C | 0.12
U9G G35A A39G | 0.07
U9C G29C U43A | 0.02
U9C C23U C46G | 0.01
U9C C10A G22A | 0.05
U9C C18U C23U | 0.02
C10A A26U A39U G40A | 0.07
U9G C18A U43C G44C | 0.02
U9C G27A G29C U38A | 0.01
U9C A25G U34C C45U | 0.12
U9C A14G U34G G40C | 0
U9G G17U U28A C31G G40A | 0.03
C10A A14G G17A A39C U43A | 0.03
U9G A11C U20G C37U | 0
U9G C18U U28G G30A | 0.11
C10A A25C G29U | 0.01
U9G C18U G33U | 0.08
U9G C13A G40U A41C | 0.09
U9C G29C C31A U32G G33C U34A C42U | 0.01

Variant | self-cleavage
U9G A24C C46A | 0.02
U9G A24C C46G | 0.05
U9C G21A U34A G36C | 0.12
C10A A11C G22A U32A G40A U43A | 0.01
C10A A12U C13A C15U G36U | 0.03
U9C G29A U34C G35A | 0.11
U9C C10U A11G U20G | 0.02
C10A A16U G36U C37U C46U | 0.01
U9G A14C U34A | 0.02
U9C C13A G44A | 0.03
U9C C15U U28C C31G | 0.04
C10A A25C U32G | 0.02
U9G G19A G30C | 0.28
U9G G21U G22C | 0.01
U9G C10G G22U G27U A39G | 0.01
C10A A24C G29A G44C | 0.01
U9G A24C G30C A41U U43A G44C | 0.04
U9G A14C U28C | 0.06
U9C G17A G21U C23U G35C | 0.01
C10A A12U A24G | 0.06
U9G G22C G30C | 0.11
U9C A25G C37A | 0.01
U9G G27A C46U | 0.04
U9C G17U G21C G29C | 0.02

Variant | self-cleavage
U9C A16G G27C G33U A41U | 0.01
U9G A12U C13U G19U G27U | 0.06
C10A A12U A24C C46A | 0
U9G C31U A41G | 0.02
C10A A14U A16C G30A G36C A41U | 0.01
U9G G17C G35U C37A U43G | 0.12
U9C C13A G21U G35A C37U | 0.01
U9G C13A G17U C31A | 0.32
U9C C10A G44A | 0.02
U9C G30A G44A | 0.03
U9C A14G G27U C37A U38A | 0.02
U9G A26U U28G G29C | 0.01
C10A A11C A12G U38G C45A | 0
U9C C13G C31G | 0.03
U9C A16C U28C U43A C46U | 0
U9C U34C C37G | 0.01
U9G C10G G30A | 0.01
U9C A14C G29C A41U C45U | 0.01
C10A A11C U28C | 0
U9C C15U G35A | 0.06
U9G C18U G21A | 0.13
U9C G17A C45A | 0.03
C10A A16G G21C A24C G27U | 0.02
C10A A14G A26G G36U | 0.01

Variant | self-cleavage
U9C G29A U32C U38A A41C G44C | 0.01
U9G A39U C46U | 0.06
U9G C23U C37U | 0.04
U9G C10U G27A G29C U34C | 0.02
U9G G19U G30U C31G G44A | 0.01
U9G G27C C31A G36A G44A | 0.05
C10A A12U C18U | 0.04
C10A A12C A16C | 0
U9C C10U A14G A39U | 0.02
U9G C15A G30U | 0.03
C10A A16U A26C | 0.03
U9G C10A G17C | 0.01
U9G C10A G30U | 0.01
U9G A14G G44U | 0.08
U9G A14U C15A C42U | 0.02
C10A A11C G21A G33U | 0.01
U9C A24G G30A U32C G33C | 0.03
U9C G17A C23G U34G | 0.01
C10A A12U U28G G33A | 0.02
C10A A16G G21C C37A A39C | 0.01
U9G C10G A11G C37G | 0
U9C C10A A25C C46A | 0
U9G G17A U38C C42A C45G | 0.11
